{
  "source": "PubChem BioAssay AID588855",
  "about": "(National Center for Advancing Translational Sciences (NCATS), 2011)",
  "note": "The whole screen tested about 410,000 compounds, of which about 5,000 (1.2%) were called active. Inconclusive results, whose numbers are uncertain, are shown with a selection of clear calls. Calls come from the whole dose curve; as a rule, active = well fitted inhibition curve with a large enough effect; inconclusive = small, poorly fitted or top-dose-only effect; inactive = no such curve, though single readings can be large or run the other way. Potencies of inconclusive entries are doubtful fits and often do not repeat. Potency is the fitted concentration of half-maximal effect; tags give direction and shape of the fitted curve.",
  "data": [
    {"experiment": "qHTS for Inhibitors of TGF-b; note: nearly all actives have a fitted effect of over 65% in size", "settings": "HepG2 CAGA-GFP TGF-b/SMAD3 reporter, GFP fluorescence, 18 h, TGF-beta stimulated, 500 pg/mL final; series mostly up to 46.1 µM", "procedure,_shortened": "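HEPG2 CAGA-GFP cells (1000/well, DMEM with 1% FBS) were pre-incubated 2 h at 37 degrees C, given compound by pin tool, then stimulated with TGF-beta at 500 pg/mL final for 18 h before per-cell GFP fluorescence imaging.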", "values": [
      {"smiles": "CCCC1(CCC)C(=O)NC(=Nc2ccccc2)NC1=O", "Potency": "inactive"},
      {"smiles": "COc1ccccc1CCNC1CCC(C(C)(C)C)CC1", "note": "(stereo not given)", "Potency": "inactive"},
      {"smiles": "CCn1cc2nc(SCc3c(F)cccc3Cl)n(CCc3ccccc3)c(=O)c2n1", "Potency": "inconclusive: 1 µM [inhibitor, partial curve, poor fit]"},
      {"smiles": "Cn1cc([N+](=O)[O-])c(C(=O)Nc2ccc3c(C(F)(F)F)cc(=O)oc3c2)n1", "Potency": "inconclusive: 25.1 µM [inhibitor, single point]"},
      {"smiles": "O=C1NCN(c2ccccc2)C12CCN(C(c1cccs1)c1nnnn1C1CCCCC1)CC2", "note": "(stereo not given)", "Potency": "inconclusive: 35.5 µM [inhibitor, single point]"},
      {"smiles": "Cc1cc(OCCCC(=O)NCc2cccs2)ccc1Cl", "Potency": "inconclusive: 5.62 µM [inhibitor, single point]"},
      {"smiles": "COc1ccc(C(c2nnnn2Cc2ccccc2)N2CCC(n3c(=O)[nH]c4ccccc43)CC2)cc1", "note": "(stereo not given)", "Potency": "inconclusive: 35.5 µM [inhibitor, single point]"},
      {"smiles": "Cc1ccccc1N1C(=O)NC(=O)/C(=C\\c2ccc3c(c2)CCCN3Cc2ccccc2)C1=O", "Potency": "inconclusive: 4.47 µM [inhibitor, partial curve, poor fit]"},
      {"smiles": "O=P(Oc1ccccc1)(Oc1ccccc1)C(Nc1ccccc1)c1ccccc1", "note": "(stereo not given)", "Potency": "inconclusive: 17.8 µM [inhibitor, single point]"},
      {"smiles": "COc1ccccc1CN1CCN(C(=O)Cc2ccccc2)CC1", "Potency": "inconclusive: 3.55 µM [inhibitor, single point]"},
      {"smiles": "CC1CC(C)CC(C)C(O)C(C#N)=CC=CCC(C2CCCC2C(=O)O)OC(=O)CC(O)C(C)C1", "note": "(stereo not given)", "Potency": "inconclusive: 0.316 µM [inhibitor, full curve, poor fit]"},
      {"smiles": "CCN(CC)C(=O)[C@H]1C[C@H](CC(=O)NCC23CC4CC(CC(C4)C2)C3)C(=O)N2CCc3c([nH]c4cc(-c5ccco5)ccc34)[C@]12C", "Potency": "inconclusive: 3.55 µM [inhibitor, single point]"},
      {"smiles": "Oc1cc(Cl)ccc1Oc1ccc(Cl)cc1Cl", "Potency": "active: 17.8 µM"},
      {"smiles": "O=c1[nH]c(=O)n(C2CCCCCC2)c(O)c1C=NCc1cccnc1", "Potency": "inconclusive: 11.2 µM [inhibitor, single point]"},
      {"smiles": "COc1ccc(-c2c3c(=O)n(C)c(=O)n(C)c3c3n2-c2ccccc2NC3c2ccccc2OC)cc1", "note": "(stereo not given)", "Potency": "inconclusive: 7.08 µM [inhibitor, full curve]"},
      {"smiles": "CC(C)(C)c1ccc(C(=O)Nc2ccc3nc(SCC(=O)N4CCCC4)sc3c2)cc1", "Potency": "inconclusive: 0.112 µM [inhibitor, full curve, poor fit]"},
      {"smiles": "C[C@]12CC[C@H](O)C[C@H]1CCC1C2CC[C@]2(C)[C@@H](c3ccc(=O)oc3)C[C@H]3O[C@]132", "note": "(stereo not given in full)", "Potency": "active: 7.94 µM"},
      {"smiles": "CCOc1cc(/C=C2/C(=O)NC(=O)N(c3ccc(CC)cc3)C2=O)ccc1OC(=O)c1cccs1", "Potency": "inactive"},
      {"smiles": "CC(=O)c1c(O)n(-c2cccc(Cl)c2)c(=O)[nH]c1=O", "note": "(tested in a mixture with another compound)", "Potency": "inactive"},
      {"smiles": "CCCCCCn1c(N)c(C(=O)NCCN2CCOCC2)c2nc3ccccc3nc21", "Potency": "active: 15.8 µM"},
      {"smiles": "CCOC(=O)[C@]12Cc3cc(OC)ccc3[C@H]1N(Cc1ccccc1)C(=O)c1cc(F)c(F)cc12", "Potency": "inconclusive: 8.91 µM [inhibitor, partial curve]"},
      {"smiles": "COc1ccc(C(Nc2cccc([N+](=O)[O-])c2)P(=O)(OC(C)C)OC(C)C)cc1", "note": "(stereo not given)", "Potency": "inconclusive: 20 µM [inhibitor, single point]"},
      {"smiles": "C[C@@H]1CN([C@H](C)CO)S(=O)(=O)c2ccc(C#Cc3cccc(F)c3)cc2O[C@@H]1CN(C)C(=O)CN1CCOCC1", "Potency": "inconclusive: 17.8 µM [inhibitor, single point]"},
      {"smiles": "COc1ccc(-n2c(/C=C/c3cccc(F)c3)nc3ccccc3c2=O)cc1Cl", "Potency": "inconclusive: 7.94 µM [inhibitor, partial curve, poor fit]"},
      {"smiles": "CCN1CC=C(c2c[nH]c3ccccc23)CC1", "Potency": "inconclusive: 20 µM [inhibitor, partial curve, poor fit]"},
      {"smiles": "CCc1cc(=O)oc2cc(OCC(=O)N3C[C@H]4C[C@@H](C3)c3cccc(=O)n3C4)c(Cl)cc12", "Potency": "inactive"},
      {"smiles": "CN1CCCC1c1cccnc1", "note": "(stereo not given)", "Potency": "inactive"},
      {"smiles": "Cc1[nH]c2ccccc2c1C1=CCNCC1", "Potency": "inconclusive: 0.112 µM [inhibitor, full curve, poor fit]"},
      {"smiles": "Cc1cccc(-n2nc(C)c3c2NC(=O)CSC3c2ccccc2Cl)c1", "note": "(stereo not given)", "Potency": "inconclusive: 35.5 µM [inhibitor, single point]"},
      {"smiles": "O=C1OC(c2ccc(Br)cc2)=N/C1=C\\N1CC2CC(C1)c1cccc(=O)n1C2", "note": "(stereo not given)", "Potency": "inconclusive: 35.5 µM [inhibitor, single point]"},
      {"smiles": "Cc1cc(C)nc(NC2=NCCS2)n1", "Potency": "inconclusive: 2.51 µM [inhibitor, partial curve, poor fit]"},
      {"smiles": "COc1ccc(-n2c(O)c(/C=C3\\C=Nc4ccc(Br)cc43)c(=O)[nH]c2=O)c(OC)c1", "Potency": "inconclusive: 31.6 µM [inhibitor, single point]"},
      {"smiles": "O=Cc1cn(Cc2ccccc2[N+](=O)[O-])c2ccccc12", "Potency": "inconclusive: 22.4 µM [inhibitor, single point]"},
      {"smiles": "CC(N)C(=O)NC1C2C(=C(O)CC(O)C2O)C(=O)OC1(C)C(Cl)Cl", "note": "(stereo not given)", "Potency": "inconclusive: 0.447 µM [inhibitor, full curve, poor fit]"},
      {"smiles": "Cn1c(=O)oc2cc(S(=O)(=O)N3CCCC(C(=O)Nc4ccccn4)C3)ccc21", "note": "(stereo not given)", "Potency": "inconclusive: 35.5 µM [inhibitor, single point]"},
      {"smiles": "O=[N+]([O-])c1nccn1CC(O)CN1CC1", "note": "(stereo not given)", "Potency": "inactive"},
      {"smiles": "CCOc1ccc(CN(CCc2ccc3c(c2)OCO3)Cc2ccc(C)cc2)cc1", "Potency": "inconclusive: 35.5 µM [inhibitor, single point]"},
      {"smiles": "CC(C)Cc1nc2cccnc2n1C1CCNCC1", "Potency": "inactive"},
      {"smiles": "O=C(COc1ccccc1)N1CCN(C/C=C/c2ccccc2)CC1", "Potency": "inconclusive: 3.55 µM [inhibitor, partial curve, poor fit]"},
      {"smiles": "O=c1c2ccccc2nc(-c2ccccc2)n1-c1ccccc1", "Potency": "inconclusive: 11.2 µM [inhibitor, partial curve, poor fit]"},
      {"smiles": "CCOc1ccccc1NC(=O)NCc1ccc2c(c1)CCN2C(=O)c1ccccc1", "Potency": "inconclusive: 4.47 µM [inhibitor, partial curve, poor fit]"},
      {"smiles": "Cc1cccc(-c2nn3c(=O)cc(CN4CCN(C(=O)COc5ccc(Cl)cc5)CC4)nc3s2)c1", "Potency": "inconclusive: 1.26 µM [inhibitor, partial curve, poor fit]"},
      {"smiles": "Oc1ccc2c3c1OC1c4oc5ccccc5c4C[C@@]4(O)[C@@H](C2)N(CC2CC2)CC[C@]314", "note": "(stereo not given in full)", "Potency": "inactive"},
      {"smiles": "CN(N=O)c1cc(O)ccc1O", "Potency": "inconclusive: 15.8 µM [inhibitor, single point]"},
      {"smiles": "Cc1ccc(-c2nc(N(C)C3CCN(C)CC3)c3ccccc3n2)cc1", "Potency": "inconclusive: 22.4 µM [inhibitor, single point]"},
      {"smiles": "CC(N)Cc1c[nH]c2ccc(O)cc12", "note": "(stereo not given)", "Potency": "inactive"},
      {"smiles": "ClCCN(CCCl)c1ccc(C=NNc2ncccn2)cc1", "Potency": "inactive"},
      {"smiles": "N#CC1=C(N)Oc2c(c(=O)oc3ccccc23)C1c1cccnc1", "note": "(stereo not given)", "Potency": "inactive"},
      {"smiles": "O=S(=O)(c1ccc(F)c(F)c1F)N1CCN(c2ncnc3sccc23)CC1", "Potency": "inconclusive: 1 µM [inhibitor, full curve, poor fit]"},
      {"smiles": "COC(=O)C1=C(c2ccc(S(C)(=O)=O)cc2)C[C@@H]2CC[C@H]1N2C(=O)NCc1ccccc1", "Potency": "inconclusive: 35.5 µM [inhibitor, single point]"},
      {"smiles": "ClCCN(CCCl)c1ccc(C2=NCCc3ccccc32)cc1", "Potency": "inconclusive: 17.8 µM [inhibitor, partial curve, poor fit]"},
      {"smiles": "COc1ccccc1CN1CCN(Cc2ccc(Cl)cc2)CC1", "Potency": "inactive"},
      {"smiles": "O=c1c2ccc(Cl)cc2[nH]c(=S)n1-c1cccnc1", "Potency": "inactive"},
      {"smiles": "CN(C)CC#CCC(O)(c1ccccc1)C1CCCC1", "note": "(stereo not given)", "Potency": "inconclusive: 1.12 µM [inhibitor, full curve]"},
      {"smiles": "C=C1C(=O)O[C@H]2[C@H]1[C@H](OC(=O)CC(=O)O[C@@H]1C[C@@H](C)[C@@H]3C=CC(=O)[C@@]3(C)[C@H]3OC(=O)C(=C)[C@H]13)C[C@@H](C)[C@H]1C=CC(=O)[C@]12C", "Potency": "inconclusive: 17.8 µM [inhibitor, partial curve, poor fit]"},
      {"smiles": "CC(C)(C)c1ccc(/C=C2\\Oc3cc(OC(=O)N4CCOCC4)ccc3C2=O)cc1", "Potency": "inconclusive: 20 µM [inhibitor, single point]"},
      {"smiles": "CC1(C)OC(c2ccccc2)=C/C(=C/C=C2C(=O)NC(=S)NC2=O)O1", "Potency": "inconclusive: 35.5 µM [inhibitor, single point]"},
      {"smiles": "O=C(Oc1ccc2c(c1)CCC2)N1CCOCC1", "Potency": "inactive"},
      {"smiles": "O=c1oc2ccccc2n1CSC1=NCCS1", "Potency": "inconclusive: 35.5 µM [inhibitor, single point]"},
      {"smiles": "O=C(CN1CCCCC1)c1ccccc1", "Potency": "inconclusive: 35.5 µM [inhibitor, partial curve, poor fit]"},
      {"smiles": "C[C@H]1CCC[C@H](O)CCCCCc2cc(O)cc(O)c2C(=O)O1", "Potency": "inconclusive: 35.5 µM [inhibitor, single point]"},
      {"smiles": "Cc1nc(NS(=O)(=O)c2cccc([N+](=O)[O-])c2)sc1C(C)(C)C", "Potency": "inconclusive: 35.5 µM [inhibitor, single point]"},
      {"smiles": "Cn1ncnc2c(=O)n(C)c(=O)nc1-2", "Potency": "active: 0.112 µM"},
      {"smiles": "COc1ccc(C(=O)C2CCCN(CCO)C2)c(C)c1", "note": "(stereo not given)", "Potency": "inactive"},
      {"smiles": "CC(C)N1CC=C(c2c[nH]c3ccccc23)CC1", "Potency": "inconclusive: 5.01 µM [inhibitor, partial curve, poor fit]"}
    ]}
  ]
}
